{
  "source": "PubChem BioAssay AID1346428",
  "about": "(National Center for Advancing Translational Sciences (NCATS), 2018)",
  "note": "In all, about 48,000 compounds went through this assay and about 1,200 (2.5%) were called active. Not shown: some 2% with an inconclusive outcome.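 How the source made its calls: active means activation of at least 60% and not above a set upper limit (about 1 call in 100 departs from these limits); inconclusive means activation of 40% to 60%, or above that upper limit; inactive means activation under 40%.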 This is one part of the list.",
  "data": [
    {"biological_target": "Probable G-protein coupled receptor 32 (Homo sapiens) (UniProt O75388)", "sequence (O75388 whole entry, looked up, the tested form may be a part)": "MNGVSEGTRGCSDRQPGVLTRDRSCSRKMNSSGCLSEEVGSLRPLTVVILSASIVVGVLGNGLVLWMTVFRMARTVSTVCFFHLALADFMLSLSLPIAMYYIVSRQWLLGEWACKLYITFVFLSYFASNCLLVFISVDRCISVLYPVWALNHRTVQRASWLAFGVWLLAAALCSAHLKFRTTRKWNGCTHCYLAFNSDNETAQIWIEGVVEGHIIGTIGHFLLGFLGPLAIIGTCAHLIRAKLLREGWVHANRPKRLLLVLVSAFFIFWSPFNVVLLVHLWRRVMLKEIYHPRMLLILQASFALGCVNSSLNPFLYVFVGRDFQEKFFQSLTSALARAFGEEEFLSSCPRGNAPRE", "assay": "qHTS for Agonists of Human Resolvin D1 Receptor DRV1; further: 0% is about no effect", "conditions": "CHO-K1 GPR32 beta-arrestin PathHunter luminescence, 90 min; at 76.9 µM; hits give high values; zero percent set by DMSO-only wells", "outline": "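Agonism was scored by beta-Gal fragment complementation (chemiluminescent read, 1 h detection at ambient temperature) reporting beta-arrestin binding to GPR32 in engineered CHO-K1 cells. Compound treatment lasted 90 min at 37 C, normalized to a DMSO basal control.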", "values": [
      {"smiles": "COc1ccc(NC(=O)c2ccc3c(c2)sc2nc(-c4ccc(OC)cc4)cn23)cc1", "activation": "inactive: -3.9%"},
      {"smiles": "Cc1ccc(NC(=O)Cn2c(=O)n(Cc3ccco3)c(=O)c3ccccc32)c(C)c1", "activation": "inactive: -5.02%"},
      {"smiles": "Cc1cccc(NC(=O)CSc2nc3ccccc3nc2N2CCOCC2)c1C", "activation": "inactive: 1.22%"},
      {"smiles": "CCOc1ccc(CNS(=O)(=O)c2cc3c(cc2C)NC(=O)CO3)cc1", "activation": "inactive: -11.6%"},
      {"smiles": "CC(=O)c1ccc(N2CCN(C(=O)CCCCn3c(=O)[nH]c4ccsc4c3=O)CC2)cc1", "activation": "inactive: 27.1%"},
      {"smiles": "COc1ccc(Cn2c(=O)c3cccnc3n(CC(=O)Nc3c(C)cc(C)cc3C)c2=O)cc1", "activation": "inactive: -5.41%"},
      {"smiles": "CCc1cnc2c(c1SCC(=O)c1ccc(Cl)cc1)c(=O)n(C)c(=O)n2C", "activation": "inactive: -7.57%"},
      {"smiles": "CCOC(=O)c1c(-c2ccc(OC)cc2)oc2ccc(OCc3ccc(Br)cc3)cc12", "activation": "inactive: 12.1%"},
      {"smiles": "O=C(Nc1cccc(C(F)(F)F)c1)c1cc(-c2ccc3c(c2)OCCO3)on1", "activation": "active: 94%"},
      {"smiles": "CCSc1nnc(NC(=O)c2cc(=O)c3cc(C)c(C)cc3o2)s1", "activation": "inactive: -15.4%"},
      {"smiles": "COc1ccc(S(=O)(=O)n2nc(C)c(S(=O)(=O)N3CCC(C)CC3)c2C)cc1OC", "activation": "inactive: 0.353%"},
      {"smiles": "Cc1ccc(N(CC(=O)Nc2ccc(Br)cc2)S(=O)(=O)c2cccs2)cc1", "activation": "inactive: 36.1%"},
      {"smiles": "CCc1ccccc1NC(=O)c1ccc2nc(C(C)C)oc2c1", "activation": "inactive: -5.99%"},
      {"smiles": "O=C(NCCc1ccc(F)cc1)C(=O)NCC(c1ccco1)S(=O)(=O)c1cccs1", "note": "(centres undefined)", "activation": "inactive: -5.11%"},
      {"smiles": "CC(C)CCNC(=O)CCC(=O)NNc1nc2ccccc2c2nc(-c3ccccc3)nn12", "activation": "inactive: -7.75%"},
      {"smiles": "COc1cc(OC)cc(C(=O)N2CC(=O)Nc3ccc(Cl)cc3C2c2ccccc2)c1", "note": "(centres undefined)", "activation": "inactive: -6.95%"},
      {"smiles": "O=C(Nc1nnc2n1CCS2)c1ccccc1C(F)(F)F", "activation": "inactive: -60.3%"},
      {"smiles": "O=C(Nc1ccc(Cl)c(C(F)(F)F)c1)C(Cc1ccccc1)NS(=O)(=O)c1ccc(Br)s1", "note": "(centres undefined)", "activation": "inactive: 26.6%"},
      {"smiles": "Brc1cccc(-c2cnn3c(-c4ccccc4)cc(-c4ccccc4)nc23)c1", "activation": "inactive: -19.8%"},
      {"smiles": "COc1ccc(C2=C(C)C(N3CCC(C(=O)Nc4ccc(F)cc4C)CC3)=NS2(=O)=O)cc1", "activation": "inactive: 40.8%"},
      {"smiles": "COc1cccc(C(=O)NCC(c2ccc3c(c2)OCO3)N2CCOCC2)c1", "note": "(centres undefined)", "activation": "inactive: -20.1%"},
      {"smiles": "CCOc1ccc(NC(=O)C(=O)NCc2ccco2)cc1", "activation": "inactive: 4.5%"},
      {"smiles": "O=C(NCc1ccccc1)C(=O)NCC(c1cccs1)S(=O)(=O)c1ccccc1", "note": "(centres undefined)", "activation": "inactive: -7.77%"},
      {"smiles": "C[N+](C)(CCCCCC[N+](C)(C)CCCN1C(=O)c2cccc3cccc(c23)C1=O)CCCN1C(=O)c2cccc3cccc(c23)C1=O", "activation": "inactive: -11.6%"},
      {"smiles": "COc1ccc2cc3cc(C(=O)NCc4ccccc4OC)oc3nc2c1", "activation": "inactive: 4.18%"},
      {"smiles": "CC1(C)CC(=O)c2cc(C(=O)Nc3ccccc3Cl)c(=O)n(-c3ccc(Cl)cc3)c2C1", "activation": "inactive: -8.04%"},
      {"smiles": "CCc1nonc1NC(=O)c1oc2ccc(F)cc2c1C", "activation": "inactive: 7.67%"},
      {"smiles": "CN(C)c1ccc(CNC(=O)C2CCCN(S(=O)(=O)c3ccc4c(c3)oc(=O)n4C)C2)cc1", "note": "(centres undefined)", "activation": "inactive: 19.9%"},
      {"smiles": "COc1ccc(CCNC(=O)C(=O)NCC(c2ccc3c(c2)OCO3)N2CCOCC2)cc1", "note": "(centres undefined)", "activation": "inactive: -20%"},
      {"smiles": "CC1=C(C(=O)Nc2ccc(Cl)cc2)C(c2ccccc2C)n2ncc(C(=O)Nc3ccc(C)cc3)c2N1", "note": "(centres undefined)", "activation": "inactive: -21.5%"},
      {"smiles": "Cc1cccc(OCC(=O)NC(Cc2c[nH]c3ccccc23)C(=O)O)c1C", "note": "(centres undefined)", "activation": "inactive: 9.01%"},
      {"smiles": "COc1ccc(-n2cc(-c3ccccc3)c3c(NC4CCCCC4)ncnc32)cc1", "activation": "inactive: -33.4%"},
      {"smiles": "O=C(Nc1cc(F)ccc1F)N1CCC(CN2CCOCC2)CC1", "activation": "inactive: -9.37%"},
      {"smiles": "Cc1cc(OCCOCC[N+](C)(C)Cc2ccccc2)ccc1C(C)(C)CC(C)(C)C", "activation": "inactive: 6.35%"},
      {"smiles": "Cc1cccc(OCCCCn2c(C3CC(=O)N(c4ccccc4Cl)C3)nc3ccccc32)c1", "note": "(centres undefined)", "activation": "inactive: -9.76%"},
      {"smiles": "Cn1c(=O)n(C/C=C/c2ccccc2)c(=O)c2c1nc1n2CCN1c1ccc(F)cc1", "activation": "inactive: -6.74%"},
      {"smiles": "COc1ccc(S(=O)(=O)NCCc2sc(C)nc2C)cc1F", "activation": "inactive: 11.4%"},
      {"smiles": "CCOC(=O)C1=C(C)NC(C)=C(C(=O)OCC)C1c1ccccc1/C=C/C(=O)OC(C)(C)C", "activation": "inactive: -6.83%"},
      {"smiles": "Cc1ccc2c(CC(=O)Nc3cccc(Cl)c3C)coc2c1", "activation": "inactive: 3.16%"},
      {"smiles": "Cc1ccc(-c2nc3cc(NC(=O)c4cc5ccccc5o4)ccc3o2)cc1", "activation": "inactive: 0.99%"},
      {"smiles": "CCN1C(=O)c2ccccc2Sc2ccc(NC(=O)COc3ccc(Cl)cc3)cc21", "activation": "inactive: -1.01%"},
      {"smiles": "CN1CCN(c2ncc3c(n2)CCN(Cc2cc(Br)cs2)C3)CC1", "activation": "inactive: -33.3%"},
      {"smiles": "CCOc1ccc(-c2cnc(NCc3ccc(C(F)(F)F)cc3)n2C)cc1", "activation": "inactive: -58.5%"},
      {"smiles": "CCOc1ccc(-n2c(SCC(=O)Nc3cccc(Cl)c3)nc3c(oc4ccccc43)c2=O)cc1", "activation": "inactive: -4.58%"},
      {"smiles": "COc1ccc(C(=O)CC2(O)C(=O)Nc3c(C)cccc32)c(OC)c1OC", "note": "(centres undefined)", "activation": "inactive: -13.3%"},
      {"smiles": "O=C(c1ccc(C(F)(F)F)cc1)N1CCC(c2noc(-c3ccc(S(=O)(=O)N4CCCC4)cc3)n2)CC1", "activation": "inactive: -2.37%"},
      {"smiles": "O=C(c1cccs1)N(Cc1cccnc1)c1nc2c(Cl)cccc2s1", "activation": "inactive: -23.4%"},
      {"smiles": "NC(=O)c1ccccc1NC(=O)C1CCCN(c2ncnc3onc(-c4ccc(F)cc4)c23)C1", "note": "(centres undefined)", "activation": "inactive: -2.39%"},
      {"smiles": "O=C(CCc1nc2cccnc2n1Cc1cccs1)Nc1cccc(C(F)(F)F)c1", "activation": "inactive: -2.98%"},
      {"smiles": "Cc1ccccc1Cn1c(=O)n(Cc2ccc3c(c2)OCO3)c(=O)c2oc3ccccc3c21", "activation": "inactive: -0.434%"},
      {"smiles": "O=C(NC1CCCC1)c1ccc2c(c1)N(Cc1ccc(C(F)(F)F)cc1)C(=O)c1ccccc1S2", "activation": "inactive: 16.3%"},
      {"smiles": "CN(C)C(=O)c1ccc(NC(=O)Cn2nnnc2-c2ccccc2F)cc1", "activation": "inactive: 3.92%"},
      {"smiles": "COc1ccc(-c2noc(CCC(=O)N(C)c3ccccc3C)n2)cc1", "activation": "active: 107%"},
      {"smiles": "COCCCNS(=O)(=O)c1cc(-c2onc(C)c2C)ccc1OC", "activation": "inactive: -7.83%"},
      {"smiles": "COc1ccc(N2CCN(C(=O)CSc3n[nH]c(-c4ccccc4)n3)CC2)cc1", "activation": "inactive: -9.14%"},
      {"smiles": "O=C(Nc1ccc(-c2nc3cc(NC(=O)c4ccccc4Cl)ccc3o2)cc1)c1ccccc1Cl", "activation": "inactive: -1.03%"},
      {"smiles": "COc1ccc(Nc2c3c(nc4ccc(NC(=O)/C=C/c5cc(OC)c(OC)c(OC)c5)cc24)CCCC3)cc1OC", "activation": "inactive: -10.1%"},
      {"smiles": "N#Cc1ccc(-c2cccs2)nc1SCc1c(F)cccc1Cl", "activation": "inactive: 4.41%"},
      {"smiles": "COc1ccc(N(CC(=O)NCc2ccc(F)cc2)S(=O)(=O)c2c(C)noc2C)cc1", "activation": "inactive: -5.38%"},
      {"smiles": "COc1ccccc1CNC(=O)Cc1c(C)c2c(cc(C)c3c(C)coc32)oc1=O", "activation": "inactive: -45.8%"},
      {"smiles": "CN(C)c1ccc(CN(CC2CCCO2)C(=O)COc2ccccc2Cl)cc1", "note": "(centres undefined)", "activation": "inactive: -15.7%"},
      {"smiles": "Cc1ccccc1C(=O)N(Cc1ccc(N(C)C)cc1)Cc1ccco1", "activation": "inactive: -30.6%"},
      {"smiles": "COc1ccc(OC)c(-c2nc3c(C#N)c[nH]n3c2NC2CCCCC2)c1", "activation": "inactive: -31.5%"},
      {"smiles": "CCCN(c1ccc(C(C)C)cc1)S(=O)(=O)c1ccc2c(c1)CCN2C(=O)CC", "activation": "inactive: 15.7%"},
      {"smiles": "CCC(CC)C(=O)Nc1cc(-c2cccc(C)c2)nn1-c1ccccc1", "activation": "inactive: -32.8%"},
      {"smiles": "COc1cccc(CNC(=O)C2CCN(C(=O)N3CCOc4ccc(Cl)cc43)CC2)c1OC", "activation": "inactive: -4.28%"},
      {"smiles": "COc1ccc(Cl)cc1NC(=O)c1cc(C)nc2c1c(C)nn2-c1ccccc1", "activation": "inactive: -9.8%"},
      {"smiles": "O=c1c2sc3ccccc3c2n(Cc2ccccc2F)c(=O)n1Cc1ccccc1", "activation": "inactive: -2.44%"},
      {"smiles": "CC1=C(C(=O)Nc2ccccc2)C(c2cccnc2)n2nc(SCc3ccccc3F)nc2N1", "note": "(centres undefined)", "activation": "inactive: -2.28%"},
      {"smiles": "O=c1c2cnn(-c3ccc(Cl)cc3)c2ncn1Cc1ccc(Cl)cc1Cl", "activation": "inactive: -9.2%"},
      {"smiles": "Cc1nc2c(C(=O)NCc3ccccc3)cnn2c(C)c1Cc1ccc(F)cc1", "activation": "inactive: -12.7%"},
      {"smiles": "Cc1ccc(Cn2c(=O)n(Cc3ccco3)c(=O)c3sc4ccccc4c32)cc1", "activation": "inactive: -10.8%"},
      {"smiles": "CCCCC(=O)Nc1cc(C)c(O)c(-c2nc3ncccc3o2)c1", "activation": "inactive: -7.79%"},
      {"smiles": "Cc1cccc(C(=O)Nc2cc3c(cc2N2CCCCC2)n(C)c(=O)c(=O)n3C)c1", "activation": "inactive: 4.1%"},
      {"smiles": "CC(=O)N1CCC2(CC1)OC(=O)C(C)=C2C(=O)Nc1cccc(Cl)c1C", "activation": "inactive: -12%"},
      {"smiles": "O=C(CC1N=C2c3ccccc3N=C(SCc3ccccc3F)N2C1=O)NCCc1ccccc1", "note": "(centres undefined)", "activation": "inactive: 33.9%"},
      {"smiles": "Cc1ccc(Cl)cc1Nc1nc2ccccc2c2nncn12", "activation": "inactive: -9.93%"},
      {"smiles": "Cc1ccsc1CCN1C(=O)N(c2ccccc2)C(=O)C1CC(=O)Nc1ccc(F)cc1", "note": "(centres undefined)", "activation": "inactive: -5.79%"},
      {"smiles": "COc1ccc(CCC(=O)NCc2ccc3c(c2)CCN3C(=O)c2ccc(F)cc2)cc1", "activation": "inactive: -17.6%"},
      {"smiles": "COc1ccc(-c2nc3cc(NC(=O)Cc4ccc(Cl)cc4)ccc3o2)cc1OC", "activation": "inactive: 29.8%"},
      {"smiles": "Cc1ccc(CCNC(=O)CCN2N=C(c3ccc(C)cc3)CCC2=O)cc1", "activation": "inactive: -21.2%"},
      {"smiles": "CCOc1ccc(C(=O)Nc2cc(NC(=O)c3ccco3)ccc2OC)cc1Br", "activation": "inactive: 9.09%"},
      {"smiles": "CC(C)CC(=O)Nc1nnc(S(=O)(=O)N2CCCCCC2)s1", "activation": "inactive: -2%"},
      {"smiles": "CCOC(=O)c1ccc(NC(=O)Cn2nc(SC)c(S(=O)(=O)c3ccc(Cl)cc3)c2N)cc1", "activation": "active: 69.5%"}
    ]}
  ]
}
